Test results from patent US8858962B2, “Adjuvant or pharmaceutical preparation for transdermal or transmucosal administration” (priority 2005, dated 2014).

Tested on: influenza H3N2
Experiment: Antibody titer after influenza H3N2 antigen with LA, transnasal or intradermal (FIG. 6)

SMILES: CCCCCCCCCCCCO [Lauryl alcohol, lauryl alcohol]
- adjuvant effect, intradermal administration (influenza H3N2 0.07 μg/head, antigen solution:LA:Tween 80 1:1:0.01, intradermal): adjuvant effect of LA was observed
- antibody titer, transnasal administration (influenza H3N2 1 μg/head, antigen solution:LA:Tween 80 9:1:0.05, dropwise to the nose, compared with the antigen on its own): the antibody titer increased
